According to article PMC4336329 (PLoS ONE, 2015):
Hit rate of the full screen: of about 310,000 compounds, about 2,200 (0.71%) showed an effect of 50% or more. The effect is printed as a negative number. This is one part of the list.

biological target: human ether-à-go-go-related gene (hERG) potassium channel (human, UniProt Q12809); assay: primary screen, population patch clamp on CHO cells stably expressing hERG
Sequence (Q12809 whole entry, looked up): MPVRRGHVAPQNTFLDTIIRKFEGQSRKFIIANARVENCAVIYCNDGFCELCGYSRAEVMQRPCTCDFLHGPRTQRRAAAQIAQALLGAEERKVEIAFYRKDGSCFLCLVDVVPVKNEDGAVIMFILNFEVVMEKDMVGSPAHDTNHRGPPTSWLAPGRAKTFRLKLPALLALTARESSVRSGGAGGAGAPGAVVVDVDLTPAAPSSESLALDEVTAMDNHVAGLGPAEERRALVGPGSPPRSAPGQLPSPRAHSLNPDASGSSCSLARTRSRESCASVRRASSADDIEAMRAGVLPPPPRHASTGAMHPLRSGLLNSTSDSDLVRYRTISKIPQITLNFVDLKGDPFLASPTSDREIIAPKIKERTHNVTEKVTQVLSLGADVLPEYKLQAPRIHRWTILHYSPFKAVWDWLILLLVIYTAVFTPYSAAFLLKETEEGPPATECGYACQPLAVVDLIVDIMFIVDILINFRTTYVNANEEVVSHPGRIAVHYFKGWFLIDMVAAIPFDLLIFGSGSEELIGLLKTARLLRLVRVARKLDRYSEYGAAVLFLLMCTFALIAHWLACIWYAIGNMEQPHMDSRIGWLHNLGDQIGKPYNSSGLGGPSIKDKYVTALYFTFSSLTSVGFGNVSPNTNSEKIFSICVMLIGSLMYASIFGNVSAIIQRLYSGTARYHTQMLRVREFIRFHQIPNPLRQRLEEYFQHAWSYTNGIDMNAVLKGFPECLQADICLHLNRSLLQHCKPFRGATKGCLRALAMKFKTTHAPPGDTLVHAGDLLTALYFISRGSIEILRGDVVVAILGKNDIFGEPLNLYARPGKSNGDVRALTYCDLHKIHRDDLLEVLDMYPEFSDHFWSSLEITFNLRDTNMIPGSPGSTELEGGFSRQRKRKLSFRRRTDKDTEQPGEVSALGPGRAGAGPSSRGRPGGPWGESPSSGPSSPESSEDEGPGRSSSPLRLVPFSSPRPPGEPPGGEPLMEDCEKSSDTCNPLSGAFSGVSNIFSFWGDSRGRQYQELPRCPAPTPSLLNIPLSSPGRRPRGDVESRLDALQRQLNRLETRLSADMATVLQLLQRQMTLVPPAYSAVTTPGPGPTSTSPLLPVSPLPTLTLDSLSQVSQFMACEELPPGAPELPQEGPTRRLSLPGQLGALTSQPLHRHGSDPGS

| SMILES | hERG current change (%, negative = inhibition) at 1uM [%] |
| --- | --- |
| O=c1n(S(=O)(=O)c2cccc3cccnc23)c2ccccc2n1S(=O)(=O)c1cccc2cccnc12 | 15.7 |
| NS(=O)(=O)c1ccc(CCNC(=O)COC(=O)CCc2ccccc2)cc1 | 8.63 |
| Cc1cccc(NC(=O)CN2C(=O)N/C(=C\c3ccccc3OCc3ccc(C(=O)O)cc3)C2=O)c1 | 19.9 |
| CCc1ccccc1NC(=O)CNC(=O)c1cc(C2CC2)nc2c1cnn2C(C)C | 5.3 |
| CN(C)CCCNC(=S)NCC(c1ccc(Cl)cc1Cl)c1c[nH]c2ccccc12 (stereo not shown) | 9.62 |
| COc1ccc(CCC(=O)N2CCN(C(=O)c3ccccc3)CC2)cc1 | 14.6 |
| Cc1cc(C)cc(NC(=O)Nn2cnnc2)c1 | 19.6 |
| CCCN1CCN(S(=O)(=O)c2c(C)[nH]c(C)c2C(=O)N2CCCCC2)CC1 | -0.989 |
| COc1ccc(C)cc1NC(=S)N1CCN(S(C)(=O)=O)CC1 | 16.8 |
| Cc1cccc(NC(=S)NCCN(C2CCCCC2)C2CCCC2)c1 | -1.59 |
| CN(Cc1ccccc1)C(=O)CSc1nc2cc(C(=O)N3CCC(C(N)=O)CC3)ccc2c(=O)n1-c1ccccc1 | 12.4 |
| COC(=O)c1ccccc1NC(=S)N(Cc1ccc2c(c1)OCO2)Cc1cc2cc(OC)ccc2[nH]c1=O | 11.8 |
| Cc1cc(=O)n2nc(N3CCCC(C(=O)NCc4ccccc4Br)C3)sc2n1 (stereo not shown) | 10.2 |
| Cc1ccc(C)c(N2CCN(C(=O)CSc3ccsc3[N+](=O)[O-])CC2)c1 | -2.33 |
| COc1ccc(-n2c(C)cc(/C=C3\SC(=O)NC3=O)c2C)cc1 | 0.884 |
| CCOC(=O)c1c(NC(=O)COC(=O)c2cnccn2)sc(C(=O)NC)c1C | 5.68 |
| CCn1c(SCC(=O)N/N=C(\C)c2ccncc2)nnc1-c1ccccc1 | 5.74 |
| CC(=O)NCc1ccc(S(=O)(=O)N/N=C/c2ccc(N(C)C)cc2)cc1 | 8.99 |
| CCOc1cc(C(=O)Nc2cccc(OCC(=O)N3CCOCC3)c2)cc(OCC)c1OCC | 17.4 |
| O=C(Nc1ccc(N=Nc2ccccc2)cc1)c1cccc(Cl)c1 | 0.671 |
| COc1ccc(CCNC(=S)NCc2ccc(Cl)c(Cl)c2)cc1OC | 20.5 |
| CC1=NN(c2ccccc2)C(=O)/C1=C\C=C1/N(C)c2ccccc2C1(C)C | 10.9 |
| COc1ccc(/C=C/C(=O)NCCCN2CCCC2)cc1 | -4.15 |
| COc1ccccc1NC(=S)NCc1ccc(S(N)(=O)=O)cc1 | 6.8 |
| O=C(NCc1nnc(SCC(=O)N2CCCC2)o1)c1ccco1 | -7.61 |
| CSc1nc2nc3c(cn2n1)C(=O)CC(c1ccccc1)C3 (stereo not shown) | 13.2 |
| CC(=O)Oc1ccc(/C=N/NS(=O)(=O)c2ccccc2)cc1 | 9.84 |
| CNC(=O)c1cc(S(=O)(=O)NCc2ccncc2)ccc1OC | 3.18 |

| SMILES | hERG current change (%, negative = inhibition) at 1uM [%] |
| --- | --- |
| C[N+](C)(CCCCCC[N+](C)(C)CCCN1C(=O)c2cccc3cccc(c23)C1=O)CCCN1C(=O)c2cccc3cccc(c23)C1=O.[Br-] | 15.5 |
| CNc1nc(NCc2ccccc2)nc(N)c1[N+](=O)[O-] | 8.04 |
| CCCn1nnnc1-c1cccc(Cl)c1 | -5.05 |
| CCCNC(=O)c1ccc2c(=O)n3c(-c4ccc(C)cc4)csc3nc2c1 | 3.09 |
| Cc1cccc(OCc2nnc(SCC(=O)Nc3ccc(N4CCOCC4)cc3)o2)c1 | 13 |
| Cc1ccccc1OCCNc1cc(N2CCNCC2)ccc1[N+](=O)[O-] | 17.5 |
| Cc1cc(C)c(C(N)=O)c(NC(=O)Nc2ccccc2)n1 | 4.56 |
| CSc1ccc(S(=O)(=O)NCCSc2ccccn2)cc1 | 7.96 |
| CC(C)n1c(=O)[nH][nH]c1=S | 9.94 |
| Cc1ccc(/C=C2\SC(=S)N(CCC(=O)Nc3cccnc3)C2=O)cc1 | 11.5 |
| COc1ccc(S(=O)(=O)N2CCC(C(=O)Nc3cccc(C(C)=O)c3)CC2)cc1 | -2.68 |
| CCOC(=O)c1ccc(NC(=O)N2CCCCCC2)cc1 | 3.19 |
| CC(C)CN1CCN(Cc2cn(C)c3ccccc23)CC1CCO (stereo not shown) | 9.98 |
| CCCc1nc2c(c(=O)c3ccccc3n2C)c(=O)n1-c1cc(C)cc(C)c1 | 5.88 |
| C=C(C)Cn1c(C)cc(C)c(S(=O)(=O)c2ccc(C)cc2)c1=O | 9.47 |
| COc1cc(OC)cc(C(=O)Nc2ccccc2C(=O)NC2CC2)c1 | 16.9 |
| COc1ccc(S(=O)(=O)Cc2ccc(C(=O)NC3CCCCCC3)o2)cc1 | 21.7 |
| O=C(NCc1ccccc1)N(Cc1cc2cc3c(cc2[nH]c1=O)OCO3)CC1CCCO1 (stereo not shown) | 11.5 |
| COc1cccc(-c2ccc(C#N)c(=O)[nH]2)c1 | 9.87 |
| CC(C)c1nnc(NC(=O)CCC(=O)N2CCN(C3CCCCC3)CC2)s1 | 6.31 |
| COC(=O)C1CCN(CC(=O)Nc2ccc(OC)c(Cl)c2)CC1 | 9.01 |
| Cn1nccc1C(=O)OCC(=O)Nc1ccc(S(N)(=O)=O)cc1 | 21.2 |
| CCCc1cc(C(=O)NC(C)C2CCCO2)cs1 (stereo not shown) | 5.72 |
| Cc1nc(-c2cccc(S(=O)(=O)N3CCC(C)CC3)c2)cs1 | 17.4 |
| COc1ccc(NC(=S)N2CCC(Cc3ccccc3)CC2)cc1OC | -4.14 |
| COc1ccc([C@@H]2[C@@H]3C(=O)N(C(C)(C)C)C(=O)[C@@H]3[C@]3(Cc4ccc(Cl)cc4)C(=O)N(c4cccc(F)c4)C(=O)N23)cc1 | 10.2 |
| O=C(CC1Sc2ccccc2NC1=O)NCc1ccc(Cl)cc1 (stereo not shown) | 17.3 |
